According to the RNAGym collection of RNA variant scans (doi:10.7554/elife.90254):
Read counts are not given, so values of variants with three or more changes are uncertain.

B1: LINE1-mini (parent)
chain: GGCAGAGCUCAACACAGCGUGGCAAAGUGGCUGUGGCUAGACUGCC

Variants of: B1
Experiment: self-cleavage, relative activity (ratio to wild type); higher = more cleavage; in vitro, sequencing; the parent is a self-cleaving ribozyme

| Variant | self-cleavage |
| --- | --- |
| GGAACGGCUCAACACAGCGUGGCAAAGUGUCUGUGGCUAUACGGCC [C3A G5C A6G G30U G40U U43G] | 0.37 |
| GGAAGAGCUCAACACAGUGUGGCAAAGUGGCUGUGUCUAGACUGCC [C3A C18U G36U] | 1.45 |
| GGAAGAACUCACAACAGCGUGGCAAAGUGGCUGUGGCUGGACUGCC [C3A G7A A12C C13A A39G] | 1.08 |
| GGAACAGCUCAACACAGCGUGGUAAAGUGGCUGUGUCUAGACUGCC [C3A G5C C23U G36U] | 0.15 |
| GGAAGAGCUCAACACAGUGUGGCAAGGUGGCUGUGGCUAGACUGCC [C3A C18U A26G] | 0.44 |
| GGAAAAGCUCUACACAGCGUGGCAAAGUGGCUGUGGCUAGACCGCC [C3A G5A A11U U43C] | 0.05 |
| GGAAAAGCUCAACACAGCGAGGCAAAGUGGCUUUGGCUAGACUGCC [C3A G5A U20A G33U] | 0.13 |
| GGAAGAGCUCAACACAGCGUGGAAAAGUGGCUGCGGCUAGACUGCC [C3A C23A U34C] | 0.2 |
| GGAAGAGCUCAACACAGUGUGGCAAAGUGGCUGUGGAUAGACUGCC [C3A C18U C37A] | 0.93 |
| GGAACACCUCAACACAGCGUGGCAAAGUGCCUGUGGCUAGACUGCC [C3A G5C G7C G30C] | 0.2 |
| GGAAGACCUCAACACAGCGUGGCAAAGUGGCUGUGGCUAGACUUCC [C3A G7C G44U] | 0.2 |
| GGAAACGCUCAACACUGCGUGGCAAAGUGGCUGUGGCUAGACUGCC [C3A G5A A6C A16U] | 0.22 |
| GGAAUAGCUCAACACAGCGUGGCAAAGUGGCUGUGCCUAGACUGAC [C3A G5U G36C C45A] | 0.12 |
| GGAACAGCUCAACACAGCGUGGCAAAGUGGCUGUGACUAGACUGCC [C3A G5C G36A] | 0.2 |
| GGAAGAACUCAACACAGCGUGGCAAAGUGGCUGAGGCUAGACUGCC [C3A G7A U34A] | 0.21 |
| GGAAUAGCUCAACACAGCGUGGCAAAGUGGAUGUGGCUAGACUGCC [C3A G5U C31A] | 0.11 |
| GGAAUAGCUUUACCCAGCGUGUCAAAGUGGCUGUGGCUAGACUGCC [C3A G5U C10U A11U A14C G22U] | 0.07 |
| GGAAGAACUCAACACAGCGUGCCAAAGUGGCUGUGGCUAGACUGCC [C3A G7A G22C] | 0.27 |
| GGAACAGCUCAACACAGCGUGGCAAAGCGGCUGUGGCUAGCCUGCC [C3A G5C U28C A41C] | 0.05 |

| Variant | self-cleavage |
| --- | --- |
| GGAAGAACUCAAAACAGCGUGUCAAAGUGGCUGUGGCUAGACUGCC [C3A G7A C13A G22U] | 0.05 |
| GGAAGAGCUCAACACAGCGUGGUAAAGUGGCUGUGGCUAGGCUGCC [C3A C23U A41G] | 0.37 |
| GGAAGAAAUCAACACAGCGUGACAAAGUGGCUGUGGCUAGACUGCC [C3A G7A C8A G22A] | 1.48 |
| GGAAGAGCUCAACACAGGGUGGCAAAGUGACUGUGGCUAGACUGCC [C3A C18G G30A] | 0.08 |
| GGAAGAACUCAACACAGCGUGGCACAGUGGCUGUGGCUAGACUGCC [C3A G7A A25C] | 0.07 |
| GGAAUAGCUCAACUCAGCGUGGCAAAGUGGCUGUGGCUAGACUGCC [C3A G5U A14U] | 0.08 |
| GGAAUAGCUCAACACAGCGUGGCAAAGUGGCUGUGGGUAGACUGCC [C3A G5U C37G] | 0.12 |
| GGAAGAGCUCAACACAGCGUGGGAAAGUGCCUGUGGCUAGACUGCC [C3A C23G G30C] | 1.06 |
| GGAAGAGCUCAACACAGCGUGGCAAAGUGGCUGUGGGUAGACUCCC [C3A C37G G44C] | 0.01 |
| GGAAGAGCUCAACACAGCGUGGGAAAGUGGCUGUGCCUAGAUUGCC [C3A C23G G36C C42U] | 0.79 |
| GGAACAGCUCAACACAGCGUGGCAAAGUGGCUGUGGCUCGACUGCC [C3A G5C A39C] | 0.28 |
| GGAACAGCUCAAAACAGAGUGGCUAAGUGGCUGUGGCUAGACUGCC [C3A G5C C13A C18A A24U] | 0.02 |
| GGAAUAGCACAACACAGUGUGGCAAAGUGGCUGUGGCUAGACUGCC [C3A G5U U9A C18U] | 0.03 |
| GGAAGACCACAACACCGCGUGGCAAAGUGGCUGUGGCUAGACUGCC [C3A G7C U9A A16C] | 0.16 |
| GGAAGACCACAACACAGCGUUGCAAAGUGGCUGUGGCUAGAUUGCC [C3A G7C U9A G21U C42U] | 0.1 |
| GGAAGAGCUCAACACAGCGUGGCAAAGUGGGUGUGGCUAGCCUGCA [C3A C31G A41C C46A] | 0.09 |
| GGAAUAUCCCGACACAGCGUGGCAAAGUGGCUGUGGCUAGACUGCC [C3A G5U G7U U9C A11G] | 0.01 |
| GGAAAAGCUCAACACAGCGUGGUAAAGUGGCUGUGGCUAGACUGAC [C3A G5A C23U C45A] | 0.78 |
| GGAACAGCUCAACACAGCGUGGCAAAGUGGCUCUAGCGAGACUGCC [C3A G5C G33C G35A U38G] | 0.21 |

| Variant | self-cleavage |
| --- | --- |
| GGAAGAGCUCAACACAGCGUGGCAAAGUGGAUGUGGCUAGUCUGCC [C3A C31A A41U] | 0.14 |
| GGAAGAAUUCAACACAGCGUGGCGAUGUGGCUGUUGCGAGACUGCC [C3A G7A C8U A24G A26U G35U U38G] | 1.6 |
| GGAAGAGCUCAACACAGCGUGGGAAAGUGGGUGUGGCUAGACUGCC [C3A C23G C31G] | 0.05 |
| GGAAGAACUCAACAGAGCUUGGCAAAGUGGCUGUGGCUAGACUGCC [C3A G7A C15G G19U] | 0.15 |
| GGAAUAGCUCAACACAGCGUGGCAAAGUGGCUCUGGCUAGACUGCC [C3A G5U G33C] | 0.23 |
| GGAACAGCUCAACACAGCGUGGCAUAGUGGCUGUGGCUAGACUGCC [C3A G5C A25U] | 0.19 |
| GGAAGACCUCAACACAGCGUGGCAAAGUGGCUGUGGCUAUACUGCC [C3A G7C G40U] | 0.07 |
| GGAAUAGCCCAACACUGCGUGGCAAAGUGGCUGUGGCUAGACUGCC [C3A G5U U9C A16U] | 0.06 |
| GGAAGAGCUCAACACAGCGUGGCAAAGUGGGUGUGGCUAUUCUGAC [C3A C31G G40U A41U C45A] | 0.01 |
| GGAACAGCUCAACACAGCGUGGGAAAGUGGCUGUGGCUAGAGUGCC [C3A G5C C23G C42G] | 0.02 |
| GGAAGAACUCAACACAGGGUGGCAAAGUGGCUGCGGAUAGACUGCC [C3A G7A C18G U34C C37A] | 0.08 |
| GGAAGAGCUCAACACAGCGUGGCAAAGUGGCUGUGGAAAGACUGCC [C3A C37A U38A] | 0.23 |
| GGAAGAGCUCAACACAGUGUGGCAAUGUGGCUGUGGGUAGACUGCC [C3A C18U A26U C37G] | 0.01 |
| GGAACAGCUCAACACAGCAUGGGAAAGUGGCUGUGGAUAGCCUCCC [C3A G5C G19A C23G C37A A41C G44C] | 0.02 |
| GGAAGAACUGAACACAGCGUUGUAAAGUGGCUGUGGCUAGACUAAC [C3A G7A C10G G21U C23U G44A C45A] | 0 |
| GGAAGAACUCAAAACAGCGUGGCAAAGUGGCUGUUGCUAGACUGCC [C3A G7A C13A G35U] | 0.84 |
| GGAAGACAUCAACACAGCGUGGCAAAGUGUCUCUGGCUAGACUCGC [C3A G7C C8A G30U G33C G44C C45G] | 0.28 |
| GGAAGAACUCAACACAGCGUGGAAAAGUGGCUGUGGCUAGACUGCC [C3A G7A C23A] | 0.25 |
